Assay results: PubChem BioAssay AID651820 (National Center for Advancing Translational Sciences (NCATS), 2012)
In all, about 340,000 compounds went through this assay and about 12,000 (3.5%) were called active. Inconclusive means that the source gave no clear call. Such entries were picked first, then a sample of the others. The call rests on the fitted dose curve; in most records, active means well fitted inhibition curve with a large enough effect; inconclusive means small, poorly fitted or top-dose-only effect, or another doubt; inactive means no such curve, though single readings can be large or run the other way. Potencies of inconclusive entries are left out as doubtful fits.
On the % scale 0 is the no-effect control and ±100 the full control effect; potency means the concentration at half of the fitted maximal effect; tags describe the fitted curve by direction and shape.

Experiment: qHTS Assay for Inhibitors of Hepatitis C Virus (HCV)
Conditions: Huh7.5.1 HCVcc-Cre (HCVcc is cell-culture hepatitis C virus) infection, luciferase reporter, 44 h; activity change, negative = inhibition: at 41.8 µM (top of the series)
How it was run: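 Seed cells (1,000/well) for 4 h; treat with compound and infect with HCVcc-Cre, moi about 0.5. Incubate 44 h, then detect luciferase activity.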
With `CCc1oc2c(C)c(O)ccc2c(=O)c1-c1ccc2ccccc2n1` the Potency was inconclusive [inhibitor, single point]. For `CC(C)C1=C2CCCCC2NC(=O)N1` (stereo unspecified), the Potency was inconclusive [inhibitor, single point]. With `CC(Sc1nc(-c2ccccc2)cc(C(F)(F)F)n1)C(=O)NCc1ccco1` (stereo unspecified) the Potency was active: 11.2 µM. For `COc1ccc(CN(Cc2cccn2C)C(=O)c2cc3cc(OC)ccc3[nH]2)cc1`, the Potency was inconclusive [inhibitor, single point]. For `COc1cc2c(cc1OC)C(C)N(C(=O)c1cc3c(C)cc(C)cc3[nH]1)CC2` (stereo unspecified), the Potency was active: 22.4 µM. In the case of `Cc1ccc(S(=O)(=O)N2CCCC(C(=O)N(Cc3cccs3)C3CC3)C2)cc1` (stereo unspecified), the Potency is reported as active: 15.8 µM. With `CC(C)Oc1ccc(CNC(=O)c2cc(S(=O)(=O)N3CCOCC3)cn2C)cc1` the “activity change, negative = inhibition” value was inactive: 4%. In the case of `COc1ccc(N(CC(=O)Nc2cc(C)ccc2C)S(=O)(=O)c2c(C)noc2C)cc1`, the Potency is reported as inconclusive [inhibitor, single point]. In the case of `COc1c(OC)c(O)c2c(=O)cc(-c3c(O)cccc3O)oc2c1OC`, the Potency is reported as inconclusive [inhibitor, partial curve]. With `COC(=O)c1c(NC(=O)CN(C)CC(=O)Nc2ccc(C)cc2)sc2c1CCC(C)C2` (stereo unspecified) the Potency was inconclusive [inhibitor, partial curve]. In the case of `O=C(c1ccco1)N1CCN(Cc2nc3ccccc3c(=O)n2-c2ccc(F)cc2)CC1`, the “activity change, negative = inhibition” value is reported as inactive: 1.74%. For `Cc1[nH]c2ccccc2c1C(Nc1nccs1)c1ccncc1` (stereo unspecified), the “activity change, negative = inhibition” value was inactive: 0.388%. For `Cc1ccc2cc(CCNC(=O)C(=O)c3c[nH]c4ccccc34)c(=O)[nH]c2c1`, the Potency was inconclusive [inhibitor, single point]. For `CN(CCC#N)CC(=O)Nc1ccc(NC(=O)CN(C)CCC#N)cc1`, the “activity change, negative = inhibition” value was inactive: 19.5%. With `Cc1cccc(N(Cc2cc3cc(C)ccc3[nH]c2=O)C(=O)c2cccs2)c1` the Potency was inconclusive [inhibitor, single point]. In the case of `CCCc1cc(C(=O)N2CCC(n3nccc3NC(=O)c3ccc(OC)cc3)CC2)no1`, the “activity change, negative = inhibition” value is reported as inactive: -5.09%. With `O=C(C(c1ccccc1)N1CCOCC1)N1CCOCC1` (stereo unspecified) the “activity change, negative = inhibition” value was inactive: 24%. In the case of `COc1ccc(CNC(=O)Cn2cc3c(n2)CCCCC3)cc1`, the “activity change, negative = inhibition” value is reported as inactive: 12.7%. For `Cc1ccc(NC(=O)CCc2nc3sc4c(c3c(=O)[nH]2)CCCC4)c(Br)c1`, the “activity change, negative = inhibition” value was inactive: 12.7%. For `Cc1ccc(S(=O)(=O)NCCC(=O)NCC(c2cccs2)N(C)C)cc1` (stereo unspecified), the “activity change, negative = inhibition” value was inactive: -0.866%. For `COc1ccc(NC(=S)NNC(=O)c2ccco2)c(OC)c1`, the “activity change, negative = inhibition” value was inactive: 3.99%. With `COC(=O)C(C)N(C(=O)c1cccc2ccccc12)c1c(C)cccc1C` (stereo unspecified) the Potency was inconclusive [inhibitor, single point]. With `Brc1ccc(C2N3CCCN23)cc1` (stereo unspecified) the “activity change, negative = inhibition” value was inactive: 6.89%. For `COc1ccc(NC(=O)CN2CCCCC2)cc1`, the Potency was inconclusive [inhibitor, partial curve]. With `O=C(c1ccc(Cl)c(Cl)c1)N1CCN(c2ccccn2)CC1` the “activity change, negative = inhibition” value was inactive: 19.6%. In the case of `COc1ccc(CS(=O)(=O)/C(Cl)=C(/Cl)C(=O)Nc2ccc(OC)nc2)cc1`, the Potency is reported as active: 3.98 µM. In the case of `Cc1ccc(C(=O)CSc2nc3cccnc3n2C)cc1`, the Potency is reported as inconclusive [inhibitor, single point]. With `COC(=O)c1sc2ccccc2c1NC(=O)c1ccc(S(=O)(=O)N2CCCCC2)cc1` the Potency was inconclusive [inhibitor, single point]. For `Cc1ccc(NC(=O)C2CC(=O)N(Cc3ccccc3)C2)cc1S(=O)(=O)N1CCCCCC1` (stereo unspecified), the Potency was active: 8.91 µM. For `CCOc1ccc(-c2nnc(-c3snc(-c4ccc(F)cc4)c3N=CN(C)C)o2)cc1`, the Potency was inconclusive [inhibitor, partial curve]. With `CCc1sc(C(=O)Nc2ccccc2N2CCOCC2)cc1C` the Potency was inconclusive [inhibitor, single point]. In the case of `CCNC(=O)N(C)C[C@H]1N[C@@](Cc2ccccc2)(C(=O)OC)[C@H]2C(=O)N(C)C(=O)[C@@H]12`, the “activity change, negative = inhibition” value is reported as inactive: 0.464%. With `Cc1ccccc1NC(=O)OCc1cccnc1Sc1ccc(Cl)cc1` the Potency was inconclusive [inhibitor, single point]. In the case of `C/C(=N\NC(=O)c1ccc(Cl)cc1)c1ccccn1`, the Potency is reported as active: 3.16 µM. For `COc1ccc(Cn2c(C(C)C)nc3sc4ccccc4c(=O)c3c2=O)cc1`, the Potency was inconclusive [inhibitor, partial curve]. For `CCCOc1ccc(-c2nc3c(c(=O)[nH]c(=O)n3Cc3ccccc3)n2CCO)cc1OCC`, the Potency was inconclusive [inhibitor, partial curve]. With `CCOc1cc(C(=O)OCC(=O)N(C)c2ccccc2)cc(OCC)c1OCC` the Potency was inconclusive [inhibitor, full curve]. For `Cc1cc(C)c(S(=O)(=O)N2CCc3ccccc32)c(C)c1`, the Potency was inconclusive [inhibitor, single point]. In the case of `O=C(/C=C/c1cccc([N+](=O)[O-])c1)NCCSCc1c(Cl)cccc1Cl`, the Potency is reported as inconclusive [inhibitor, partial curve]. For `COc1cc(CNc2nc(C)c([N+](=O)[O-])c(C)c2C#N)cc(OC)c1OC`, the Potency was active: 6.31 µM. For `CCOc1ccc(NC(=O)CN(C)C(=O)CCCOc2ccc(Cl)c(C)c2)cc1OCC`, the Potency was inconclusive [inhibitor, full curve]. For `O=C1C(Cl)=C(NCCN2CCOCC2)C(=O)c2ccccc21`, the Potency was inconclusive [inhibitor, single point]. For `CSc1nc2cc(S(=O)(=O)N3CCCCC3)ccc2s1`, the Potency was inconclusive [inhibitor, single point]. With `c1ccc2c(c1)CCc1c-2nc2ccccc2c1N1CCOCC1` the Potency was inconclusive [inhibitor, single point]. In the case of `CCN(Cc1ccccc1)C(=O)c1cc(S(=O)(=O)N2CCOCC2)ccc1N1CCCC1`, the Potency is reported as inconclusive [inhibitor, partial curve, poor fit]. In the case of `CC1(C)Cc2c(sc3nc(SCC(=O)N4CCOCC4)nc(N)c23)CO1`, the “activity change, negative = inhibition” value is reported as inactive: -8.7%. For `Nc1nonc1-n1nnc(C(=O)N/N=C/c2ccc(Br)cc2)c1CSC1=NCCS1`, the Potency was inconclusive [inhibitor, partial curve]. For `COc1cc2ccccc2ccc1=NO`, the Potency was inconclusive [inhibitor, single point]. For `CCN(CC(=O)Nc1ccc(OC)cc1)C(=O)CSCc1ccc(C)cc1`, the Potency was inconclusive [inhibitor, single point]. With `CCc1cccc(NC(=O)Nc2cccs2)c1` the Potency was inconclusive [inhibitor, single point]. In the case of `COc1ccc(N(C(=O)CCl)C(C(=O)NC2CCCCC2)c2cccnc2)cc1` (stereo unspecified), the Potency is reported as active: 3.16 µM. For `CCC(C)Sc1cccc(-c2nc3ccccn3c2NCc2ccccc2)c1` (stereo unspecified), the Potency was inconclusive [inhibitor, single point]. With `CCOC(=O)CC(NS(=O)(=O)c1ccc(OC)c(C)c1)c1cccc([N+](=O)[O-])c1` (stereo unspecified) the “activity change, negative = inhibition” value was inactive: -15.2%. For `N=c1c(S(=O)(=O)c2ccccc2)cc2c(=O)n3ccccc3nc2n1C1CCCC1`, the Potency was inconclusive [inhibitor, partial curve]. For `Cc1ccc(NC(=S)NC2CCCC2)cc1C`, the “activity change, negative = inhibition” value was inactive: -12.5%. With `COc1ccc(OCC(O)CN2CCN(CC(O)COc3ccc(OC)cc3)CC2)cc1` (stereo unspecified) the Potency was inconclusive [inhibitor, single point]. In the case of `COc1cc2c(cc1OC)/C(=C/C(=O)c1ccc(OC)c([N+](=O)[O-])c1)NCC2`, the Potency is reported as inconclusive [inhibitor, single point]. With `Cc1occc1C(=O)NCCc1cccc(Cl)c1` the “activity change, negative = inhibition” value was inactive: 3.3%. For `N=c1c(C(=O)NCc2ccc3c(c2)OCO3)cc2c(=O)n3ccccc3nc2n1CC1CCCO1` (stereo unspecified), the Potency was inconclusive [inhibitor, single point]. With `CCC1(c2ccc(F)cc2)NC(=O)N(CC(=O)N(C)C2CCS(=O)(=O)C2)C1=O` (stereo unspecified) the activity change, negative = inhibition was inactive: 1.36% [at 8.37 µM]. For `CCOC(=O)c1oc2ccccc2c1NC(=O)c1ccco1`, the Potency was inconclusive [inhibitor, single point]. In the case of `CCN(CC)C(=O)c1[nH]cnc1C(=O)N[C@@H](C)C(=O)OC(C)(C)C`, the Potency is reported as inconclusive [inhibitor, partial curve]. With `Cc1cccc(COCC(Cc2ccccc2)N2CCN(C(=O)c3ccc(Cl)c(Cl)c3)CCC2=O)c1` (stereo unspecified) the Potency was inconclusive [inhibitor, single point]. For `CCOC(=O)C1=C(C)NC(C)=C(C(=O)OC)C1c1cccc([N+](=O)[O-])c1` (stereo unspecified), the Potency was inconclusive [inhibitor, partial curve]. For `O=C(c1sc2ccccc2c1Cl)N1CCN(c2ncccn2)CC1`, the “activity change, negative = inhibition” value was inactive: -2.69%. For `Fc1ccc(F)c(CNc2ncnc3cc(Cl)ccc23)c1`, the Potency was inconclusive [inhibitor, partial curve]. For `Cn1c(=O)oc2cc(S(=O)(=O)N3CCCC(C(=O)N4CCc5ccccc5C4)C3)ccc21` (stereo unspecified), the Potency was inconclusive [inhibitor, single point]. With `COc1cccc(CNC(=O)COC(=O)C2CCN(c3ccc(C(F)(F)F)cn3)CC2)c1` the “activity change, negative = inhibition” value was inactive: 0.417%. In the case of `O=C(CCc1nc2ccccc2c(=O)[nH]1)Nc1cc(Cl)ccc1N1CCCC1`, the Potency is reported as inconclusive [inhibitor, single point]. For `ClCC(CNCc1ccccc1)c1ccccc1` (stereo unspecified), the “activity change, negative = inhibition” value was inactive: -13.7%. With `Cc1ccc(OCCNC(=O)c2cc(C(=O)NCCOc3ccc(C)cc3)cc([N+](=O)[O-])c2)cc1` the Potency was inconclusive [inhibitor, partial curve].
